In article PMC12820563 one finds binding signal (RPM ratio (pull-down/input)) data, which are given here for 40 sequences.

This is one part of the list. The list includes weakly bound sequences.

The target of the experiment is T1, MBP-FoxP3dN (UniProt Q99JB6).
T1 sequence: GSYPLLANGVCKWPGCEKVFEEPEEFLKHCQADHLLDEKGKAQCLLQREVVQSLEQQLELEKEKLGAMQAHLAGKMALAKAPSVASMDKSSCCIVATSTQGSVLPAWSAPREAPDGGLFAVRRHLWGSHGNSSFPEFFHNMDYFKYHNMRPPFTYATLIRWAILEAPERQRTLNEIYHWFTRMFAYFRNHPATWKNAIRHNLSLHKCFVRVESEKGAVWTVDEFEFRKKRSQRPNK
The experiment is described as follows: PD-seq (MBP pull-down with sequencing). To be noted: 20 mM Tris-HCl pH 7.5, 100 mM NaCl, 1.5 mM MgCl2, 0.4 uM protein, 0.1 uM dsDNA library, 30 min, room temperature, amylose pull-down; high values mean tight binding; double strand, one strand shown.
With “GATGATTGTTCTCCCAGCTGATGAATTCTCATATTCGAGTAAACAAATTTTCCTAATCTTTCTGTTCAAGCGCCATCTAC”, the binding signal (RPM ratio (pull-down/input)) came out at 0.434.

On to “GATGATTGTTCTCCCAGCTGATGAATTGTGTACGTCGAGTAAACAAATTTTCCTAATCTTTCTGTTCAAGCGCCATCTAC”, for which the binding signal (RPM ratio (pull-down/input)) was 3.64.

With “GATGATTGTTCTCCCAGCTGATGAATTTTCGCTATCGAGTAAACAAATTTTCCTAATCTTTCTGTTCAAGCGCCATCTAC”, the binding signal (RPM ratio (pull-down/input)) was found to be 0.627.

In the case of “GATGATTGTTCTCCCAGCTGATGAATTTATATTATCGAGTAAACAAATTTTCCTAATCTTTCTGTTCAAGCGCCATCTAC”, the binding signal (RPM ratio (pull-down/input)) was found to be 1.6.

“GATGATTGTTCTCCCAGCTGATGAATTATATTACTCGAGTAAACAAATTTTCCTAATCTTTCTGTTCAAGCGCCATCTAC”: the binding signal (RPM ratio (pull-down/input)) came to 0.924.

“GATGATTGTTCTCCCAGCTGATGAATTTCGCCCATCGAGTAAACAAATTTTCCTAATCTTTCTGTTCAAGCGCCATCTAC”: the binding signal (RPM ratio (pull-down/input)) turned out to be 1.56.

Turning to “GATGATTGTTCTCCCAGCTGATGAATTTTCGGCGTCGAGTAAACAAATTTTCCTAATCTTTCTGTTCAAGCGCCATCTAC”, the binding signal (RPM ratio (pull-down/input)) was 0.441.

In the case of “GATGATTGTTCTCCCAGCTGATGAATTTGGCAGCTCGAGTAAACAAATTTTCCTAATCTTTCTGTTCAAGCGCCATCTAC”, the binding signal (RPM ratio (pull-down/input)) stood at 1.53.

As for “GATGATTGTTCTCCCAGCTGATGAATTCGAATGTTCGAGTAAACAAATTTTCCTAATCTTTCTGTTCAAGCGCCATCTAC”, the binding signal (RPM ratio (pull-down/input)) stood at 0.896.

Take “GATGATTGTTCTCCCAGCTGATGAATTGATCGACTCGAGTAAACAAATTTTCCTAATCTTTCTGTTCAAGCGCCATCTAC”: the binding signal (RPM ratio (pull-down/input)) turned out to be 0.33.

“GATGATTGTTCTCCCAGCTGATGAATTATCTACGTCGAGTAAACAAATTTTCCTAATCTTTCTGTTCAAGCGCCATCTAC”: the binding signal (RPM ratio (pull-down/input)) turned out to be 0.345.

With “GATGATTGTTCTCCCAGCTGATGAATTCGCTAACTCGAGTAAACAAATTTTCCTAATCTTTCTGTTCAAGCGCCATCTAC”, the binding signal (RPM ratio (pull-down/input)) stood at 0.31.

Take “GATGATTGTTCTCCCAGCTGATGAATTTATACTATCGAGTAAACAAATTTTCCTAATCTTTCTGTTCAAGCGCCATCTAC”: the binding signal (RPM ratio (pull-down/input)) is 1.16.

As to “GATGATTGTTCTCCCAGCTGATGAATTTTAGAGGTCGAGTAAACAAATTTTCCTAATCTTTCTGTTCAAGCGCCATCTAC”, the binding signal (RPM ratio (pull-down/input)) amounted to 0.246.

Regarding “GATGATTGTTCTCCCAGCTGATGAATTAACTCGGTCGAGTAAACAAATTTTCCTAATCTTTCTGTTCAAGCGCCATCTAC”, the binding signal (RPM ratio (pull-down/input)) stood at 0.233.

On to “GATGATTGTTCTCCCAGCTGATGAATTTGAAATTTCGAGTAAACAAATTTTCCTAATCTTTCTGTTCAAGCGCCATCTAC”, for which the binding signal (RPM ratio (pull-down/input)) worked out at 0.33.

Turning to “GATGATTGTTCTCCCAGCTGATGAATTGTTTTACTCGAGTAAACAAATTTTCCTAATCTTTCTGTTCAAGCGCCATCTAC”, the binding signal (RPM ratio (pull-down/input)) was determined as 1.55.

For the sequence “GATGATTGTTCTCCCAGCTGATGAATTGTCACGGTCGAGTAAACAAATTTTCCTAATCTTTCTGTTCAAGCGCCATCTAC”, the binding signal (RPM ratio (pull-down/input)) came out at 0.334.

Take “GATGATTGTTCTCCCAGCTGATGAATTTAGAGACTCGAGTAAACAAATTTTCCTAATCTTTCTGTTCAAGCGCCATCTAC”: the binding signal (RPM ratio (pull-down/input)) was found to be 0.585.

Turning to “GATGATTGTTCTCCCAGCTGATGAATTGCTGCTCTCGAGTAAACAAATTTTCCTAATCTTTCTGTTCAAGCGCCATCTAC”, the binding signal (RPM ratio (pull-down/input)) turned out to be 0.662.

With “GATGATTGTTCTCCCAGCTGATGAATTAAAAATGTCGAGTAAACAAATTTTCCTAATCTTTCTGTTCAAGCGCCATCTAC”, the binding signal (RPM ratio (pull-down/input)) was 0.248.

As to “GATGATTGTTCTCCCAGCTGATGAATTAGGCTGGTCGAGTAAACAAATTTTCCTAATCTTTCTGTTCAAGCGCCATCTAC”, the binding signal (RPM ratio (pull-down/input)) turned out to be 0.593.

Turning to “GATGATTGTTCTCCCAGCTGATGAATTTTGTGCCTCGAGTAAACAAATTTTCCTAATCTTTCTGTTCAAGCGCCATCTAC”, the binding signal (RPM ratio (pull-down/input)) was 1.84.

As to “GATGATTGTTCTCCCAGCTGATGAATTTAGCTGATCGAGTAAACAAATTTTCCTAATCTTTCTGTTCAAGCGCCATCTAC”, the binding signal (RPM ratio (pull-down/input)) is 0.744.

As for “GATGATTGTTCTCCCAGCTGATGAATTAGCGCCCTCGAGTAAACAAATTTTCCTAATCTTTCTGTTCAAGCGCCATCTAC”, the binding signal (RPM ratio (pull-down/input)) amounted to 0.739.

Regarding “GATGATTGTTCTCCCAGCTGATGAATTGAGGAGCTCGAGTAAACAAATTTTCCTAATCTTTCTGTTCAAGCGCCATCTAC”, the binding signal (RPM ratio (pull-down/input)) was found to be 0.198.

With “GATGATTGTTCTCCCAGCTGATGAATTGTAGCGCTCGAGTAAACAAATTTTCCTAATCTTTCTGTTCAAGCGCCATCTAC”, the binding signal (RPM ratio (pull-down/input)) is 0.704.

With “GATGATTGTTCTCCCAGCTGATGAATTGTAGCTGTCGAGTAAACAAATTTTCCTAATCTTTCTGTTCAAGCGCCATCTAC”, the binding signal (RPM ratio (pull-down/input)) amounted to 0.668.

Take “GATGATTGTTCTCCCAGCTGATGAATTTGGAGACTCGAGTAAACAAATTTTCCTAATCTTTCTGTTCAAGCGCCATCTAC”: the binding signal (RPM ratio (pull-down/input)) was 0.511.

Consider “GATGATTGTTCTCCCAGCTGATGAATTTGAATCCTCGAGTAAACAAATTTTCCTAATCTTTCTGTTCAAGCGCCATCTAC”, for which the binding signal (RPM ratio (pull-down/input)) worked out at 0.709.

For the sequence “GATGATTGTTCTCCCAGCTGATGAATTGATGCTATCGAGTAAACAAATTTTCCTAATCTTTCTGTTCAAGCGCCATCTAC”, the binding signal (RPM ratio (pull-down/input)) was found to be 2.82.

Turning to “GATGATTGTTCTCCCAGCTGATGAATTCCAACACTCGAGTAAACAAATTTTCCTAATCTTTCTGTTCAAGCGCCATCTAC”, the binding signal (RPM ratio (pull-down/input)) was determined as 0.63.

For the sequence “GATGATTGTTCTCCCAGCTGATGAATTTGGCAGGTCGAGTAAACAAATTTTCCTAATCTTTCTGTTCAAGCGCCATCTAC”, the binding signal (RPM ratio (pull-down/input)) stood at 0.637.

Turning to “GATGATTGTTCTCCCAGCTGATGAATTGGGATTATCGAGTAAACAAATTTTCCTAATCTTTCTGTTCAAGCGCCATCTAC”, the binding signal (RPM ratio (pull-down/input)) was found to be 0.712.

As to “GATGATTGTTCTCCCAGCTGATGAATTAGTTTAATCGAGTAAACAAATTTTCCTAATCTTTCTGTTCAAGCGCCATCTAC”, the binding signal (RPM ratio (pull-down/input)) was found to be 1.12.

In the case of “GATGATTGTTCTCCCAGCTGATGAATTGAACTTTTCGAGTAAACAAATTTTCCTAATCTTTCTGTTCAAGCGCCATCTAC”, the binding signal (RPM ratio (pull-down/input)) was 0.276.

Consider “GATGATTGTTCTCCCAGCTGATGAATTTGAATAATCGAGTAAACAAATTTTCCTAATCTTTCTGTTCAAGCGCCATCTAC”, for which the binding signal (RPM ratio (pull-down/input)) came out at 0.371.

Take “GATGATTGTTCTCCCAGCTGATGAATTTTGACTTTCGAGTAAACAAATTTTCCTAATCTTTCTGTTCAAGCGCCATCTAC”: the binding signal (RPM ratio (pull-down/input)) came out at 1.32.

Consider “GATGATTGTTCTCCCAGCTGATGAATTAGAGGTGTCGAGTAAACAAATTTTCCTAATCTTTCTGTTCAAGCGCCATCTAC”, for which the binding signal (RPM ratio (pull-down/input)) was 0.737.

Regarding “GATGATTGTTCTCCCAGCTGATGAATTTGATCACTCGAGTAAACAAATTTTCCTAATCTTTCTGTTCAAGCGCCATCTAC”, the binding signal (RPM ratio (pull-down/input)) was found to be 0.63.
